No constants are given. Whether binding was seen depends on the method and setting. In cells and extracts the contact can be indirect.

Protein sequences, listed by entry. Tags and fused reporters are not part of them.
UniProt Q8IUC6: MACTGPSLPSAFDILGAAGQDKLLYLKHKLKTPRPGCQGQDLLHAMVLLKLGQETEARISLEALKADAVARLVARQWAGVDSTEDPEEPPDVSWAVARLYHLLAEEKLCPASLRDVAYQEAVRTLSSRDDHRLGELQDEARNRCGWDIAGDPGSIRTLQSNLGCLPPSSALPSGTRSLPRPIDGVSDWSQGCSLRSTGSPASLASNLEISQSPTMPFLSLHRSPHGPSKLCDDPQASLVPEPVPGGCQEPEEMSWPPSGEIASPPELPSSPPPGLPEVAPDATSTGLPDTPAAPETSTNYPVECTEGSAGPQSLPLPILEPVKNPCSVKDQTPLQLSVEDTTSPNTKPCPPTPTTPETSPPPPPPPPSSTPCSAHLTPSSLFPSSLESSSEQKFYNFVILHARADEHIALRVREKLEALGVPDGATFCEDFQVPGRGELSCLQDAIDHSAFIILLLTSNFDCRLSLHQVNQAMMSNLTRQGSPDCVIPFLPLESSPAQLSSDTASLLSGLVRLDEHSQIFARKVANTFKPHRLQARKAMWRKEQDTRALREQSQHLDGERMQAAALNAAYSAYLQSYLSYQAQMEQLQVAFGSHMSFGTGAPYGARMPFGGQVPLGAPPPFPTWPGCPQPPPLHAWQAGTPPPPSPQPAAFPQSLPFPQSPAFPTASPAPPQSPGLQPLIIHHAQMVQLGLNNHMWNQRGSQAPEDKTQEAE
UniProt Q7Z434: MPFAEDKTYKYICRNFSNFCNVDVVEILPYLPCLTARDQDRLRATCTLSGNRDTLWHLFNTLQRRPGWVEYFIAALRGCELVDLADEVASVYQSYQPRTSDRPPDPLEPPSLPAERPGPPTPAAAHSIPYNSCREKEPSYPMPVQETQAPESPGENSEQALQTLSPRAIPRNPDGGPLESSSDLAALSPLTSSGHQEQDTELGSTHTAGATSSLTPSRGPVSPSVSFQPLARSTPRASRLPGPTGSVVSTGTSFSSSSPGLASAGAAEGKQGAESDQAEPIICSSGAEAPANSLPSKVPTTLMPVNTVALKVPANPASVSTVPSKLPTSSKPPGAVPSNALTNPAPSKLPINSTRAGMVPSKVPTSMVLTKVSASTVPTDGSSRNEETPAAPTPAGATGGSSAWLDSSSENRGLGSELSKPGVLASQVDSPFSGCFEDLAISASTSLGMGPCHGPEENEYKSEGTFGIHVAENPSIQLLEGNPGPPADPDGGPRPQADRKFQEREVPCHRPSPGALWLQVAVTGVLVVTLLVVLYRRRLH

Among the data in PMC6759578 are binding values, retold here.

The test concerns the target FLAG-tagged TRIF (expressed in A549 cells) (UniProt Q8IUC6). As to the kind of experiment: co-IP; A549 cells transfected with FLAG-tagged TRIF for 24 h, with or without poly(I:C) stimulation; anti-FLAG and Protein G beads; blotted with DDX23 and MAVS antibodies.

Take “endogenous MAVS (from UniProt Q7Z434 1-540)”: the binding entry is reported as “no binding”.
